Certain results were filed several times, with different values. The list is limited to them. There may be further records. Results that share an entry are repeats across runs, samples, wells, individuals or studies. Marks such as (2×) count equal records among those shown.
System: A498 complex spheroid viability
Test: Anticancer human tumor A498 cell line growth inhibition;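 also: spheroids exposed to agents for seven days before readout; 100% = DMSO vehicle-treated spheroids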
Conditions: stronger effect = lower value
From the text: Multicellular complex tumor spheroid response to LSD1 Inhibitor Iadademstat in combination with a variety of drugs and investigational agents in selected tumor cell lines
The current study was undertaken to assess response to LSD1 inhibitors in combination with standard-of-care drugs and investigational agents in solid tumor complex spheroid models as well as in the K-562 leukemia. Complex spheroids include a stromal component modeled by human endothelial cells (HUVEC) and fibroblasts modeled by human mesenchymal stem cells (MSCs). The concentration ranges selected for each drug and investigational agent were based upon clinically achievable concentrations if the clinical Cmax of the agent was known.
Compounds. The drugs and investigational agents used in this study are listed on Table 1. All of the agents used, including staurosporine (NSC755774) and gemcitabine (NSC613327), were obtained from the Developmental Therapeutics Program, NCI. FDA-approved anticancer drugs are available from the NCI at http://dtp.nci.nih.gov/branches/dscb/oncology_drugset_explanation.html. Drugs and investigational agents were >95% pure by proton nuclear magnetic resonance (NMR) and liquid chromatography/mass spectrometry (LC/MS). […] If the clinical Cmax for an agent had not been determined, the highest concentration tested was 10 microM. […]

## NC1CC1c1ccc(-c2cccc(O)c2)cc1 (configuration not stated)
Compound alone 1 µM
  viability, T/C: 93, 96.5, 92.8, 111, 101 (4×), 102, 109 (4×), 92, 98.4, 103, 97, 104, 89.7, 87.3, 92.4, 116, 93.9, 90.2, 94.4%
Compound alone 3.16 µM
  viability, T/C: 89, 90.4, 82.6, 105, 100, 94.5, 108, 90.8, 107 (2×), 102, 101 (3×), 92.2, 92.3, 90, 92.8, 112, 91.9, 109, 86.8, 111, 91.4, 89.8%

Reference: PubChem BioAssay AID1918947 (Molecular Pharmacology Branch, DTP, NCI, 2023)
